Results published in PubChem BioAssay AID1460 (National Center for Advancing Translational Sciences (NCATS), 2008).
Hit rate of the full screen: of about 270,000 compounds, about 5,800 (2.1%) were called active. This list was built around the results that the source calls inconclusive (neither active nor inactive); the mix of calls is not that of the screen. Calls follow the shape of the dose curve; as a rule, active = well fitted inhibition curve with a large enough effect; inconclusive = small, poorly fitted or top-dose-only effect; inactive = flat fitted curve, though single readings scatter. Potencies beside an inconclusive call are fits to weak or partial responses and may not hold up.

The molecules below were run against Microtubule-associated protein tau (Homo sapiens) (UniProt P10636) (assay: qHTS for Inhibitors of Tau Fibril Formation, Thioflavin T Binding). Settings: recombinant tau K18 P301L (four-repeat tau fragment), heparin-induced fibrillization, ThT fluorescence; series mostly up to 57.4 µM; activity, negative = inhibition: at the top concentration.
Sequence of UniProt P10636 (P10636 whole entry, looked up, the tested form may be a part): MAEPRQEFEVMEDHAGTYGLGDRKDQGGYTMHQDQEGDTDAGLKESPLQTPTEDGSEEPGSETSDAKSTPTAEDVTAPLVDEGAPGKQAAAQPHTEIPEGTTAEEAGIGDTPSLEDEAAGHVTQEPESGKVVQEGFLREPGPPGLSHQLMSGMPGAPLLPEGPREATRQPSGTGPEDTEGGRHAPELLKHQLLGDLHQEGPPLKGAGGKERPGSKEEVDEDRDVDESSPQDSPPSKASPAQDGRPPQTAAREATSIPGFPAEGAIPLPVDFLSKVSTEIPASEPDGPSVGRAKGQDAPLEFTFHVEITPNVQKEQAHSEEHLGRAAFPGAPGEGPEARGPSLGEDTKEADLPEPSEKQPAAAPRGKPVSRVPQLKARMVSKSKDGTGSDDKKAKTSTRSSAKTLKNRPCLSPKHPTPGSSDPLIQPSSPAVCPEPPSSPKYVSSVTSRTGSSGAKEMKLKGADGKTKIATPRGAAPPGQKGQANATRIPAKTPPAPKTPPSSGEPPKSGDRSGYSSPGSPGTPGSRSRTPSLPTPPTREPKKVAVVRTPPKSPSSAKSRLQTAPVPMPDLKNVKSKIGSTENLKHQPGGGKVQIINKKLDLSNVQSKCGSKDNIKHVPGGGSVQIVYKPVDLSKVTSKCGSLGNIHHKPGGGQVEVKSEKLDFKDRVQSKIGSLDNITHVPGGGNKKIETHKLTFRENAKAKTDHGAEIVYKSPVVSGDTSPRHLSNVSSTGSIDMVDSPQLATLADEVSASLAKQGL
Method in brief: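 Heparin-induced (20 uM) aggregation of recombinant human K18 P301L tau, 15 uM unlabeled with 0.24 uM labeled, pH 7 acetate buffer, 6 hr at 37 C with compound. Fibrils quantified by 30 uM ThT fluorescence after 1 hr ambient incubation.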
% is scaled to controls: 0 for no effect and ±100 for the full control effect; potency is read from the fitted curve at half-maximal effect; tags tell the direction and shape of the fitted curve.
Also: nearly all actives have a fitted effect of over 55% in size.

Row | Structure (SMILES) | Potency | activity, negative = inhibition
1 | O=C1CC(/C=C/c2ccc([N+](=O)[O-])cc2)=Nc2ccccc2N1 | active: 3.98 µM | –
2 | CCC(=O)N1CCc2cc(CNS(=O)(=O)c3ccc(C(C)C)cc3)ccc21 | inconclusive: 8.91 µM [inhibitor, partial curve] | –
3 | N#C/C(=C1\CCCN1)c1nc(-c2ccccc2)cs1 | inconclusive: 39.8 µM [inhibitor, partial curve] | –
4 | CN(CC(=O)Nc1ccccc1Oc1ccccc1)Cc1ccccc1F | inconclusive: 10 µM [inhibitor, partial curve, poor fit] | –
5 | COc1cc(NC(=O)CCc2c(C)nc3nc(-c4cc(OC)cc(OC)c4)nn3c2C)cc(OC)c1 | inconclusive: 39.8 µM [inhibitor, single point] | –
6 | COc1cc2c(C=O)c3c4c(cc(OC)c(OC)c4c2cc1OC)CCN3C | active: 14.1 µM | –
7 | FC(F)Oc1ccc(-c2csc(NNC3=NCCCCC3)n2)cc1 | active: 28.2 µM | –
8 | Cc1ccc(S(=O)(=O)c2nc(-c3ccco3)oc2SC(C)c2ccccc2)cc1 (stereo not given) | – | inactive: -15.9%
9 | COc1ccc(CN2C(=O)NC3(CCCCCC3)C2=O)cc1F | – | inactive: 4.9%
10 | O=C(Cc1cccs1)Nc1cccc(-c2nc3cc4ccccc4cc3[nH]2)c1 | inconclusive: 4.47 µM [activator, single point] | –
11 | O=C(CN1CCN(c2ccc(F)cc2)CC1)c1ccc2c(c1)OCO2 | inconclusive: 11.2 µM [inhibitor, partial curve] | –
12 | COc1ccc(OC)c(-c2cc(C(=O)Nc3cccc(Cl)c3C)no2)c1 | – | inactive: -6.35%
13 | O=C(O)c1cccc(N2C(=O)C3C4C=CC(C4=C(c4ccccc4)c4ccccc4)C3C2=O)c1 (stereo not given) | – | inactive: 8.61%
14 | CN1CCN(c2cc(-c3ccc(N(C)C)cc3)ncn2)CC1 | inconclusive: 25.1 µM [inhibitor, partial curve, poor fit] | –
15 | C(=C\c1ccccc1)/C=N/Nc1nc2ccccc2s1 | inconclusive: 7.94 µM [inhibitor, partial curve] | –
16 | CC1(C)CC(NC(=S)Nc2ccc([N+](=O)[O-])cc2)CC(C)(C)N1 | inconclusive: 28.2 µM [inhibitor, partial curve] | –
17 | O=C(Nc1ccc(Cl)cc1)N(Cc1cccnc1)Cc1ccco1 | – | inactive: 5.85%
18 | OCCC1CN(Cc2ccc(Oc3ncccn3)cc2)CCN1C1CCCCC1 (stereo not given) | – | inactive: 9.4%
19 | O=C(CCCn1c(=S)[nH]c2cc3c(cc2c1=O)OCO3)N1CCN(c2ccc(Cl)cc2)CC1 | inconclusive: 0.501 µM [inhibitor, full curve] | –
20 | COc1cc2c(cc1NC(=O)Cc1ccc(C)cc1)oc1ccccc12 | inconclusive: 15.8 µM [inhibitor, partial curve] | –
